# Test results: the supplement of paper PMC3334620
# Over roughly 33,000 sequences, “E-score (-0.5 to 0.5)” has its median near -0.035; the highest 2% begin near 0.34. This is one part of the list.
# Target: T1, Mot3 (UniProt P54785)
# T1 sequence: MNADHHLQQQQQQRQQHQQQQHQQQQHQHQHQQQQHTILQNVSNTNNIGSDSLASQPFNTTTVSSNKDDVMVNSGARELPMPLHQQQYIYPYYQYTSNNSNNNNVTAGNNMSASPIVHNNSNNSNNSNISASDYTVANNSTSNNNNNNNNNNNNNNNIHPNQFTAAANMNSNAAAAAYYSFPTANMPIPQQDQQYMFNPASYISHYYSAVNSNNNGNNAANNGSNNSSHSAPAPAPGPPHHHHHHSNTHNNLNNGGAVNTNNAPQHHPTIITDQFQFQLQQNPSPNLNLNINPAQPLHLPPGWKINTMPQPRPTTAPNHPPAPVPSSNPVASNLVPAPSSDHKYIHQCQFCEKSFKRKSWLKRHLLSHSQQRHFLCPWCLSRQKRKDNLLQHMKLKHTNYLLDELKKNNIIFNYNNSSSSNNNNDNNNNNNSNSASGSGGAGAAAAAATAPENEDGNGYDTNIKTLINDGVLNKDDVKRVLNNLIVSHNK
# Experiment: PBM E-score (8-mer binding enrichment) (E-score (-0.5 to 0.5)); higher = stronger / more preferred TF binding; most listed sequences are background and not binding sites
# Conditions: protein concentration: 200 nM; construct: GST-full length
# Procedure: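 Universal 'all 10-mer' protein binding microarrays (Agilent AMADID 015681) probed with GST-tagged S. cerevisiae TFs (full-length or DBD) made by in vitro transcription/translation (PURExpress), about 100-200 nM. Bound TF was detected with fluorescent anti-GST. Each ungapped 8-mer (which stands for itself and its reverse complement) is scored by the PBM enrichment score (E-score), a modified Wilcoxon-Mann-Whitney statistic from -0.5 to +0.5, computed with the Universal PBM Analysis Suite. Scale: above 0.35 generally sequence-specific binding.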
row,Sequence,PBM E-score
1,AGTGTCTA,0.0204
2,CCGCCCCA,-0.131
3,CGTAATCA,0.285
4,ACTTACAA,0.22
5,AAGAGTAA,0.185
6,ATTCCTCG,-0.0566
7,AACCGTAT,-0.187
8,CTATAGTC,0.154
9,CAACACCG,-0.135
10,AGGCGACT,0.00152
11,CCTAAGGA,0.0581
12,ACTTCGGA,-0.0776
13,AGAAAGCG,0.158
14,CCCTATGC,-0.0966
15,AAAAGGAC,0.171
16,AACCACTG,-0.13
17,GAGCCCGA,-0.157
18,ACCGCAGT,-0.00425
19,ACCGACCC,-0.256
20,CCCTCTAC,-0.00576
21,AATGATTC,-0.203
22,AGCCCGCA,-0.199
23,ACCTGAGA,0.172
24,TCGGAGCA,-0.297
25,CCGAACCA,-0.223

row,Sequence,PBM E-score
1,AAATGCCG,0.0422
2,AAGCTGAC,-0.182
3,CCGGCATC,-0.253
4,ATTGAAGG,0.192
5,CCTGTGAC,0.166
6,CAAACGGC,-0.245
7,CCTTCGTC,0.012
8,CTCCGCCC,-0.244
9,GCAGAGTA,0.0243
10,AATAGCGG,-0.117
11,GAGTATTA,0.204
12,AGCGTAGC,-0.14
13,GAGATTGC,-0.0847
14,AGGAGGTC,-0.27
15,CAGCCCAG,-0.22
16,AACGCTCT,-0.167
17,CCCCGTTA,-0.156
18,AACTACGG,-0.146
19,CGATCTTC,-0.305
20,GTACTGAC,-0.15
21,ACATACCT,0.288
22,GCGATTCC,0.0141
23,AAATTTGA,0.0379
24,CTTACAAG,0.218
25,CTAGTCAG,-0.16

row,Sequence,PBM E-score
1,GCCGCGGA,-0.18
2,AGCCGTTA,-0.266
3,GCGGGTCA,0.0734
4,CGGGCAGC,-0.244
5,CACCCGCG,-0.0685
6,GAGACTAA,-0.172
7,AGATGGTC,-0.274
8,CAGAGTCA,-0.221
9,TATTCCCA,-0.221
10,TATAGGGA,-0.0815
11,CGGATCCG,-0.262
12,GGCCCTAA,-0.304
13,CGCGAAAA,0.0371
14,CTTGGAGA,-0.0514
15,CCTAATCG,0.0391
16,CTTTTGAA,-0.0379
17,AACGCATC,0.0613
18,AAAGATAG,0.0365
19,CTAATGAA,-0.0827
20,AAGTCTCA,-0.0154
21,ACTAACAC,0.265
22,AGTTAAGC,0.101
23,GTCCAGCA,-0.284
24,AGTCTCGA,-0.137
25,CTTCTCCC,-0.0366

row,Sequence,PBM E-score
1,CGGCGCTC,-0.00635
2,TCGCGTAA,0.374
3,AGAAATCG,-0.0445
4,GACTCATA,-0.19
5,CTGATACC,-0.0456
6,CAGGCCCG,-0.0435
7,ACATACTG,0.157
8,CACTCACG,0.086
9,AACGGAAA,-0.0791
10,ATAATACG,0.155
11,CGGTGCTC,-0.312
12,AGCTCCGG,-0.172
13,CTACGACC,-0.0193
14,CACTCCTC,-0.121
15,GAGGATGA,-0.0222
16,AGACCATC,-0.367
17,CAGGTCTA,-0.267
18,AGGAGCTC,0.179
19,AACCATTA,0.117
20,CCGGTCTA,-0.0672
21,CACGAGCG,-0.0336
22,GGACCCAC,-0.213
23,CAGTGTAA,0.225
24,GGCACAAA,0.331
25,GACAAAGA,-0.0215

row,Sequence,PBM E-score
1,CCGTACCG,-0.262
2,ATTTAGAA,-0.0375
3,AAGCGGCC,-0.308
4,CGGCCTGA,-0.351
5,CTAGACCA,-0.28
6,CTGGTCAA,-0.204
7,ACGGAAGA,0.301
8,ATACACCG,0.106
9,ATATTATA,0.0915
10,AGCTGCTC,-0.121
11,GGGACTAA,-0.27
12,AAAGGTGC,0.177
13,GGTAGGCA,0.473
14,CACGCAAA,0.117
15,AATTTCCA,0.167
16,CAGCTTAC,0.106
17,AAGTCCAA,-0.0739
18,ATCGTACC,-0.104
19,AGGTAGAA,-0.0405
20,AAAAGGGC,-0.0432
21,GCACGGAA,0.126
22,GCGCATCA,-0.158
23,CGAGTTGA,-0.144
24,GGACCAGA,-0.107
25,GAAACAAC,-0.0664

row,Sequence,PBM E-score
1,ACTTTCTA,-0.0375
2,CGAGCTGC,-0.215
3,TAAGACCA,-0.00635
4,ACATACGG,0.1
5,CTCCACCA,-0.249
6,GGTCTAAA,-0.127
7,CGTCGGAC,-0.226
8,AAGCGACC,-0.0653
9,TACAGGGA,0.0536
10,AATGGCAT,-0.0515
11,AATACTGA,0.0286
12,GGAGGACA,-0.0477
13,ATGCTTCA,-0.0616
14,GGGGGCTA,-0.346
15,AGAACTGG,-0.0526
16,AACGACCA,-0.0981
17,CGGGTATA,0.00781
18,AGAGCACT,-0.0229
19,AGGGTCGG,-0.209
20,CGCAAGTC,-0.268
21,AGTGTATC,-0.009
22,CCCTTGCG,-0.214
23,ATGCGTAA,0.32
24,TATACCCA,-0.0838
25,AGTGAGAT,-0.201

row,Sequence,PBM E-score
1,AATTGATC,-0.077
2,AGTCCCCG,-0.175
3,GCCCACTA,-0.0583
4,AGCCTATA,0.259
5,CATAAGGG,-0.0326
6,GAAACACC,0.101
7,CCGCTGGC,-0.18
8,CCCAGCCG,-0.298
9,GTACTTTA,0.154
10,CTGCAACC,-0.054
11,AACTGATA,-0.136
12,CATTTGAA,-0.1
13,CTCTCCGC,-0.0335
14,CACTGTCC,-0.196
15,GCCGAGCC,-0.161
16,ACACTCGA,-0.00344
17,CGTGCTGC,-0.0648
18,GTTAGTTA,0.187
19,AATAGATG,0.0226
20,AAAAGTTC,0.0652
21,ATTTTCTA,0.0358
22,GGTACCAA,-0.0319
